The supplement of paper PMC7125110
± gives the standard error. Variants at the floor of the assay are shown more often than the library holds them.

B1: glmS ribozyme (parent)
chain: AUAAAAGCGCCAGAACUACAGAAAUGUAGUUGACGAGGAGGAGGUUUAUCGAAUUUUCGGCGGAUGCCUCCAAA

Tests used:
Details in all cases: with glucosamine-6-phosphate
[1] = variants of: B1; test: self-cleavage kobs at 40 uM GlcN6P; higher = faster cleavage; RNA array
Method in brief: (§1)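 The measurements used barcoded ribozyme variants on sequenced MiSeq chips, transcribed in situ by E. coli RNA polymerase and tracked at 37 °C with a hybridised Cy3 probe. Glucosamine-6-phosphate, 40 μM to 10 mM in HEPES/KCl/Mg(OAc)2 buffer, was flowed in while tiles were imaged over ~14 h. Baseline-normalised signals, also normalised to non-cleaving reference variants, gave per-tile medians that were fit to one- or two-exponential decays for kobs. kcat and KM resulted from weighted Michaelis–Menten fits across concentrations.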

[2] = variants of: B1; test: self-cleavage kobs at 640 uM GlcN6P; higher = faster cleavage; RNA array
Method in brief: as §1

[3] = variants of: B1; test: self-cleavage kobs at 160 uM GlcN6P; higher = faster cleavage; RNA array
Method in brief: as §1

[4] = variants of: B1; test: self-cleavage kobs at 2500 uM GlcN6P; higher = faster cleavage; RNA array
Method in brief: as §1

[5] = variants of: B1; test: self-cleavage kobs at 10000 uM GlcN6P; higher = faster cleavage; RNA array
Method in brief: as §1

Variant	self-cleavage kobs at 40 uM GlcN6P [1]	self-cleavage kobs at 640 uM GlcN6P [2]	self-cleavage kobs at 160 uM GlcN6P [3]	self-cleavage kobs at 2500 uM GlcN6P [4]	self-cleavage kobs at 10000 uM GlcN6P [5]
AUAAAUGCGCCAGAACUACAGAAAUGUAGUUGAAGAGGAGGAGGUUUAUCGAAUUUUCGGCGGAUGCCUCCAAA [A6U C34A]	< 1e-05 s⁻¹	< 1e-05 s⁻¹	< 1e-05 s⁻¹	< 1e-05 s⁻¹	< 1e-05 s⁻¹
AUAAAGGCGCCAGAACUACAGAAAUGUAGUUGACGAGGAGGAGGUUUAUCGAAUCUUCGGCGGAUGCCUCCAAA [A6G U55C]	< 1e-05 s⁻¹	–	–	–	–
AUAAAGGCGCCAGAACUACAGAAAUGUAGUCGACGAGGAGGAGGUUUAUCGAAUUUUCGGCGGAUGCCUUCAAA [A6G U31C C70U]	< 1e-05 s⁻¹	–	–	< 1e-05 s⁻¹	–
AUAAAUGCGGCAGAACUACAGAAAUGUAAUUGACGAGCAGGAGUUUUAUCGAAUUUUCGGCGGAUGCUUCCAAA [A6U C10G G29A G38C G44U C68U]	< 1e-05 s⁻¹	–	–	–	< 1e-05 s⁻¹
AUAAAUGCGCCAGAAUUACAGAAAUGUAGUUGACGAGGAGGAGGUUAAUCGAAUUUUCGGCGUAUGCCUCCAAA [A6U C16U U47A G63U]	< 1e-05 s⁻¹	–	–	–	< 1e-05 s⁻¹
AUAAAUGCGCCAGAACUACAGAAAUGUAGUUGACGAGGCGGAAGUUUAUCGAAUUUUCGGCGGAUGUUUCCAAA [A6U A39C G43A C67U C68U]	< 1e-05 s⁻¹	–	–	–	–
AUAAAUGCACCAGAACUACAGAAAUGUAGUUGACGAGGAGGAGGUUUAUCGAAUUUUCGGCGGAUGCCUCCAAA [A6U G9A]	< 1e-05 s⁻¹	< 1e-05 s⁻¹	< 1e-05 s⁻¹	< 1e-05 s⁻¹	–
AUAAAUGCGGCAGAACUACAGAAAUGUAGUUGACGAGGAGGGGGUUUAUGGAAUUUUCGGCGGAUGACUACAAA [A6U C10G A42G C50G C67A C70A]	0.000143 ± 4.1e-05 s⁻¹	–	–	–	9.95e-05 ± 2.4e-05 s⁻¹
AUAAAGGCGCCAGAACUACAGAAAUGUAGUUGACGAGGAGGAGGUUUAUCGAAUUUUCGGCUGAUGCCUCCAAA [A6G G62U]	< 1e-05 s⁻¹	< 1e-05 s⁻¹	< 1e-05 s⁻¹	< 1e-05 s⁻¹	< 1e-05 s⁻¹
AUAAAUUCGCCAGAACUACAGAAAUGUAGUUGACGAGGAGGAGAGUUAUCGAUUUUUCGACGGAUGCCUCCAAA [A6U G7U G44A U45G A53U G60A]	< 1e-05 s⁻¹	< 1e-05 s⁻¹	–	< 1e-05 s⁻¹	–
AUAAAUGCUCCAGAACUACAGAAAUGUAGUUGACGAGGAGGAGGUUUAUCGAAUUUUCCGCGGAUGCCUCCAAA [A6U G9U G59C]	< 1e-05 s⁻¹	–	–	–	–
AUAAAGGCGCCAGAACUACAGAAAUGUAGUUGACGAGGAGGAGGUUUAUCGAAUUCUCGGCGGAUGCCUCCAAA [A6G U56C]	< 1e-05 s⁻¹	< 1e-05 s⁻¹	< 1e-05 s⁻¹	–	< 1e-05 s⁻¹
AUAAAUGCGCCAGAACUACAGAAAUGUAGUUGCCGAGGAGGAGGUUUAUCGAAUUUUCGGCGGAUGCCUCCAAA [A6U A33C]	< 1e-05 s⁻¹	< 1e-05 s⁻¹	< 1e-05 s⁻¹	< 1e-05 s⁻¹	–
AUAAAUCCGCCAGAACUACAGAAAUGUAGUUGACGAGGAGGAGGUUUAUCGAAUUCUCGGCGGAUGCCUCCAAA [A6U G7C U56C]	< 1e-05 s⁻¹	–	–	–	–
